# According to PubChem BioAssay AID1508642 (National Center for Advancing Translational Sciences (NCATS), 2021):
# The whole screen tested about 43,000 compounds, of which about 200 (0.47%) were called active. Not shown: some 12% with an inconclusive outcome. Calls come from the whole dose curve; as a rule, active = well fitted cell-killing curve with a large enough effect; inconclusive = small, poorly fitted or top-dose-only effect, or effect the other way; inactive = flat fitted curve, though single readings scatter. The list shows a part of the results.
# Assay: Cell viability qHTS assay in S16 Pmp22-F2sN cells; note: nearly all actives have a fitted effect of over 65% in size
# Details: S16 Pmp22-F2sN Schwann cells (luciferase reporters placed in the Pmp22 gene) viability, CellTiter-Glo, 24 h; series mostly up to 57.5 µM; activity change, negative = cytotoxicity: at the top concentration
# Procedure, shortened: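 Luminescence from CellTiter-Glo, read by CCD camera after a 15 min room-temperature incubation, served as the viability signal. Reporter Schwann cells (S16 Pmp22-F2sN) had been treated with pin-transferred compounds for 24 h at 37C.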
# % is set by controls: 0 for no effect and ±100 for the full control effect; potency is the fitted concentration of half-maximal effect.
SMILES,"activity change, negative = cytotoxicity",Potency
Cc1nn(CC(=O)Nc2ccc(C(C)C)cc2)c(=O)c2c(C)n(-c3ccc(Cl)cc3)nc12,inactive: -14.9%,
COc1ccc(NC(=O)CSc2nccn2C2CCCC2)cc1OC,inactive: -23.5%,
COc1ccc(-c2cn3nc(N4CCCC(C(=O)Nc5ccccc5F)C4)sc3n2)cc1 (configuration not stated),inactive: 6.83%,
CCCCN(CCCNC(=O)c1cc(Nc2ccc(OC)cc2OC)nc2ccccc12)Cc1ccccc1,inactive: -21.8%,
CCCCOC(=O)c1ccc(NC(=O)C2(c3cccs3)CCOCC2)cc1,inactive: 19.5%,
CCOC(=O)c1c(NC(=O)CSc2cn(CCNC(=O)c3ccc(OC)cc3)c3ccccc23)sc2c1CCC2,inactive: 3.91%,
COc1ccc(NC(=O)CSc2nc(-c3ccccc3)cc(-c3cc(OC)c(OC)c(OC)c3)c2C#N)c(OC)c1,inactive: 17.6%,
COc1ccc(-c2nnc(SCC(=O)Nc3cccc(C)c3)s2)cc1,inactive: -6.77%,
CC(C)(Oc1ccc(Cl)cc1)C(=O)Nc1ccc(-c2nc3ncccc3o2)cc1,inactive: 19.8%,
COc1ccccc1N1CCN(S(=O)(=O)CCNC(=O)c2cc(=O)c3ccccc3o2)CC1,inactive: -16.3%,
Cc1ccc(Cn2cc(S(=O)(=O)c3ccccc3)c(=O)c3cc(F)c(N4CCOCC4)cc32)cc1,inactive: -22.9%,
Cn1ccc2cc(S(=O)(=O)N3CCN(C(=O)Nc4cccc(F)c4)CC3)ccc21,inactive: 0.65%,
COc1ccc(NC(=O)C(c2ccc(OC)cc2)N(C)C(=O)Cc2cccs2)cc1 (configuration not stated),inactive: -9.99%,
Cc1ccc2c(CC(=O)Nc3ccc(S(=O)(=O)N4CCC(C)CC4)cc3)coc2c1,inactive: -0.875%,
CC1CCc2nc3ccc(S(=O)(=O)N4CCC(C(=O)NCc5ccccc5Cl)CC4)cc3c(C(=O)O)c2C1 (configuration not stated),inactive: -1.2%,
Cc1nn(-c2ccccc2)c2c1N(CCCC(=O)NCc1ccc(OC(C)C)cc1)C(=O)CS2,,active: 10 µM
O=c1c2[nH]c3ccccc3c2nc(SCc2ccccc2F)n1-c1ccc(F)cc1,inactive: 6.74%,
CCCn1c2ccccc2c2cnn(CC(=O)Nc3ccccc3OC)c(=O)c21,inactive: -5.79%,
COC(=O)c1ccccc1NC(=O)Cn1nc(C)c2nn(-c3ccc(Cl)cc3)c(C)c2c1=O,inactive: -10.7%,
O=C(CSc1nc2c(c(=O)[nH]1)CN(Cc1ccc3c(c1)OCO3)CC2)Nc1cc(F)ccc1F,inactive: 5.63%,
Cc1ccccc1OCC(=O)Nc1ccc(OCc2cc(=O)n3ccccc3n2)cc1,inactive: 0.225%,
Cc1ccc(CNC(=O)c2ccc3oc(=O)n(Cc4ccccc4)c3c2)cc1,inactive: -2.84%,
COc1ccc(Cl)cc1NC(=O)C1CCCN(S(=O)(=O)c2ccc3c(c2)CCCC(=O)N3)C1 (configuration not stated),inactive: -21.7%,
COC(=O)c1ccc(NC(=O)c2cc3cc(C)ccc3n2C)cc1,inactive: -6.04%,

SMILES,"activity change, negative = cytotoxicity",Potency
COc1ccc(NC(=O)CSc2nc3ccccc3n2CC(=O)NCc2ccc(F)cc2)cc1,inactive: -9.04%,
COc1ccc(NC(=O)c2ccc(-c3nc(COc4ccccc4)c(C)o3)cc2)cc1,inactive: -1.38%,
CCCCSCCCNC(=O)c1cn(CC)c2ccc(S(=O)(=O)N3CCOCC3)cc2c1=O,inactive: 0.85%,
CCOc1ccc(NC(=O)CSc2nnc3c(C)cc4ccccc4n23)cc1,inactive: 23%,
COc1ccc(S(=O)(=O)N2CCC(C(=O)Nc3ccc(Oc4ccccc4)cc3)CC2)cc1OC,inactive: 1.62%,
COc1ccc2c(c1)CC(C(=O)Nc1c(C)cc(C)cc1C)CO2 (configuration not stated),inactive: 6.28%,
NS(=O)(=O)c1ccc(CCNC(=O)Cn2c(=O)c3cccn3c3ccc(F)cc32)cc1,inactive: 22.7%,
COc1cccc2c1Oc1ncccc1N(C(=O)CCC(=O)NCc1ccc(OC(C)C)cc1)C2,inactive: 0.78%,
Cc1nn(CC(=O)NC(C)c2ccccc2)c(=O)c2cc3occc3n12 (configuration not stated),inactive: 0.0668%,
O=C(CSc1nc2c([nH]c3ccccc32)c(=O)n1-c1ccccc1)Nc1ccccc1C(F)(F)F,inactive: 9.69%,
NC(=O)COc1ccc(-c2noc(COc3ccc(Cl)cc3)n2)cc1,inactive: -3.95%,
CCOC(=O)C1=C(CN2CCN(c3ccc(Cl)cc3)CC2)NC(=O)NC1c1ccc(F)cc1 (configuration not stated),inactive: -10.2%,
COc1ccc(OC)c(NC(=O)CCCOc2cc(=O)n(C)c3ccccc23)c1,inactive: -14.4%,
COc1cccc(C(=O)NCC(c2ccc3c(c2)OCO3)N2CCN(C)CC2)c1 (configuration not stated),inactive: 20.9%,
Cc1[nH]c2ccccc2c1C1(O)C(=O)Nc2ccc(Cl)cc21 (configuration not stated),inactive: 4.19%,
COc1cc(CNCCCSc2nnnn2C)cc(Br)c1OC,inactive: 13.4%,
O=C(Nc1cccc(F)c1)C1CCN(c2nc3ccccc3nc2C(F)(F)F)CC1,inactive: -6.03%,
CCc1ccccc1-n1nnc(-c2nc(-c3ccccc3F)no2)c1C,inactive: 2.26%,
Cc1ccc2c(c1)-c1nc(-c3ccccc3)cc(-c3ccccc3)c1CO2,inactive: 3.72%,
CCc1ccc(-c2nc(CN3CCCC(C(=O)NCc4ccccc4Cl)C3)c(C)o2)cc1 (configuration not stated),inactive: -2.94%,
COc1cc(C(=O)N(CCCN(C)C)c2nc3c(OC)cccc3s2)cc(OC)c1OC,inactive: -1.36%,
O=C(NC1CCCC1)c1ccc2c(c1)N(Cc1c(F)cccc1Cl)C(=O)c1ccccc1S2,inactive: 11.3%,
Cc1nn2c(=O)cc(COC(=O)c3ccccc3NC(=O)C3CCCCC3)nc2s1,inactive: 5.56%,
